Test results reported in paper PMC12136788.
The list shows a part of the results.

T1: UNK ZnF1-3 (human, UniProt Q9C0B0 31-174)
T1 sequence: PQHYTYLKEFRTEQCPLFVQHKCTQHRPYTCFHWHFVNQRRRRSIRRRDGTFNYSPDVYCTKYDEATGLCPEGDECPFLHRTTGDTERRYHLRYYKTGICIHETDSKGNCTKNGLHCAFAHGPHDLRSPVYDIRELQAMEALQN

B1: chr9:14812383:14812384:-_ENSMUSG00000031934_ENSMUST00000164273|mus_mus|mus_mus_mus_hu_True|78_98 (ssRNA)
RNA: GGGAGUUCUACAGUCCGACGAUCAUAGCCCAGGUAGAUACAUGCCAACAGUAUAAUCACAAAUGUCAGCAGGCGGCAGCUAAUGUACUUGAUGAUUAAAUUAUUAGAAUUUUUCUUUGUCUUCAAGUACUGCUCCACAAUUGGCAACAGAGGAUUGAGCAUCA
B2: chr7:7679991:7679992:-_ENSG00000106399_ENST00000396682|hu_hu|hu_hu_hu_mus_False|8_88 (ssRNA)
RNA: GGGAGUUCUACAGUCCGACGAUCUGGGAUGAAUCUUUUCCAGCUUCCCUACGAAGCACACGGGCCGGUCGAUAUACUGUGGUAACAUGCUGGCGUUGACGCGCGCUUUGGGGAGCUGCAUUAUGUCCACCAUGAUUCUGCCGCCAACAGAGGAUUGAGCAUCA
B3: chr4:48853911:48853912:+_ENSG00000109180_ENST00000264312|hu_mus|motif|central (ssRNA)
RNA: GGGAGUUCUACAGUCCGACGAUCCUCGUUCAUAGAAGCACUAAAUGGAAUUGGCUCAUAACGAGGAAGCGCCUCCUUUUCGGUGUUGUCUGCUGCUGGAGAUGUCCCGAAAGAGGACUGACCACUCACAUUUGAGUCAAAUUUCAACAGAGGAUUGAGCAUCA
B4: chr17:87835246:87835247:-_ENSMUSG00000036438_ENSMUST00000040440|mus_mus|FALSE|FALSE (ssRNA)
RNA: GGGAGUUCUACAGUCCGACGAUCGGGACCUCAUCACUGUCCCCAGCUCCUUUGUUGUUAUUGUCCCAUCCCCGUCCUUGUCAAAUAGUGAGAAAGCUUCUUUGAACUCUGCAAUCUGCUCUUCAGUCAGUUGGUCAGCCAUGCCAACAGAGGAUUGAGCAUCA
B5: chr4:115894766:115894767:+_ENSMUSG00000028698_ENSMUST00000030464|mus_hu|mus_mus_mus_hu_True|28_108 (ssRNA)
RNA: GGGAGUUCUACAGUCCGACGAUCUUCACACGGAAAUUGUACUUCGGGUUUUCCAACGGCCAGUACCAGUCCGGCCAAACUACCCGAACAGGGUCCUCCCCCUCUCUUCUCUCCUCCACAACAAAAUGCCCCCGAACUUUCAAGCAACAGAGGAUUGAGCAUCA
B6: chr2:49629323:49629324:+_ENSMUSG00000026764_ENSMUST00000028102|mus_mus|motif|central (ssRNA)
RNA: GGGAGUUCUACAGUCCGACGAUCUCAAAUGCAGUCGGCAUUAUAAGCCCCAACCAUAACCACUAUCUUCAAUAACAUUCGGAUCAUCACCCCAACGGCUGGCAGGCAGAGGUUAUUUGUCUAAACCAUCUGGCUGCACUCCUACAACAGAGGAUUGAGCAUCA
B7: 69587733_69587853_1851_3pUTR_ENSMUSG00000042133_ENSMUST00000090858|mouse|control|control (ssRNA)
RNA: GGGAGUUCUACAGUCCGACGAUCUUGUAACUGUGUUUACUUUUAGUCAGAUCCCGUUCUCUACUCCUGGACUGUGCACGUCUAUCCUUUUCUUUACUUUUGCUAUGAUCAUGUUCAUUACUUUUUGAUUCUACCUGUUUGGAGCAACAGAGGAUUGAGCAUCA
B8: chr7:141445308:141445309:+_ENSG00000106028_ENST00000265304|hu_hu|hu_hu_hu_mus_False|98_98 (ssRNA)
RNA: GGGAGUUCUACAGUCCGACGAUCUAUGAUUGUUGUUGCUUGUCGCCUCACAUUGUUUUUAUCCAUGUACUCGCCAUAGUCCACUUUCCCUUCCACAAAUAUACGAGCCCCCUUUUUCACAUACUGAUAUGCCACAUCUCUGAGCAACAGAGGAUUGAGCAUCA
B9: chr18:90710673:90710674:+_ENSMUSG00000024614_ENSMUST00000025515|mus_hu|FALSE|FALSE (ssRNA)
RNA: GGGAGUUCUACAGUCCGACGAUCGUUGCCUAAUAUAAAUUCUAAACUUAGCUAAAAUGAAGGCCUCAAAAAUAAUUUAUCUACAAUAAACAUACCAAACUGUUACUUUAAAAAAAAGAGUUUUUAGACAUUGCUUUGGAAAGACAACAGAGGAUUGAGCAUCA
B10: chr10:75239141:75239142:-_ENSG00000107758_ENST00000394829|hu_hu|FALSE|FALSE (ssRNA)
RNA: GGGAGUUCUACAGUCCGACGAUCUACUUCUAUCAUGGUUUUCUCUCUCCGAAGGAUGGCAGCACCCUCAUUGAUAAUUCUAAGCGCAAUUUCUUCAUCUACUCGACCUUCUUUCACCAAGUGGUUCUUCAGAACAUCAACCCUCAACAGAGGAUUGAGCAUCA
B11: chr2:181380236:181380237:+_ENSMUSG00000002455_ENSMUST00000002529|mus_hu|FALSE|FALSE (ssRNA)
RNA: GGGAGUUCUACAGUCCGACGAUCGCCAUGGUUCUUCUCGAAGUACGCGGCGCGCAGCCACACACUCUUCUUGCUGGGGAACACCUGCAGGGCGUAGGCGUAGAUGGCUCGUGCACACUCCAGGGCAUUGUGGGCUACACAACUCAACAGAGGAUUGAGCAUCA
B12: 106645464_106645835_1224_ncRNA_ENSMUSG00000020719_ENSMUST00000133426|mouse|control|control (ssRNA)
RNA: GGGAGUUCUACAGUCCGACGAUCAUGGCAGGCCACCCAUCUCUCCUCAUUUUUCUGGUAAGUUCAUCACAUCUUCUUUUGGUUUCAACAAAAACAAUAGUUUUAUUCUCCUUCUCACUCAUGAUUUCUUCCAUCAGACGAAUACAACAGAGGAUUGAGCAUCA
B13: chr8:38095079:38095080:+_ENSG00000085788_ENST00000520272|hu_hu|FALSE|FALSE (ssRNA)
RNA: GGGAGUUCUACAGUCCGACGAUCAGAUUCCAGUUUCUUUUUCCAUUCAUCCAAAGUUACAGCAAGCAUGUAAGUUUCCUCUAAAACUUGGCUGAAGCUCUCCGAGUAGGGAACAUACUUAUUGUCUUUGUCCCCCUUGUAAAACAACAGAGGAUUGAGCAUCA
B14: chr2:48026839:48026840:+_ENSG00000116062_ENST00000540021|hu_hu|hu_hu_hu_mus_False|18_78 (ssRNA)
RNA: GGGAGUUCUACAGUCCGACGAUCAUAGUGAGCCACUAGCGUCCUAAAUCUGGAACAAUGGCGAUCAUCCGAAAACUGGCCGAUGAAAAACUUGCCCAGUGAAGUGUCCACAAAGCACACACCAUAUACACGAGUGUGACCAGACAACAGAGGAUUGAGCAUCA
B15: 77921596_77922756_1631_CDS_ENSG00000167291_ENST00000310924|human|control|control (ssRNA)
RNA: GGGAGUUCUACAGUCCGACGAUCAGGGUUGUACACGGCGUAGUUCAGCAGGAUCCUCCUCAUGCUCUCCACAUUGGGAUUGUCUUCCCCCCGGAAGAACUGGUUGUUCCGAUCUGUCCGGACCACGUCUUUGUCCACAGUGAACAACAGAGGAUUGAGCAUCA
B16: chr2:127988141:127988142:+_ENSMUSG00000027381_ENSMUST00000110341|mus_mus|motif|central (ssRNA)
RNA: GGGAGUUCUACAGUCCGACGAUCUGUCAAAAUUCAUCAGUGCAAAACGUAAAGGAAGCCAGGGAAACUGCAAUACAAAUGCGGCAUACGCUGGGUUCUGACAUUAGUGAUGGGGACUAUACAGAGAUCAGUGCUGUUCACUAACAACAGAGGAUUGAGCAUCA
B17: chrX:98510588:98510589:+_ENSMUSG00000031302_ENSMUST00000065858|mus_hu|FALSE|FALSE (ssRNA)
RNA: GGGAGUUCUACAGUCCGACGAUCAUGUGACAACGUGAGGAGGCUGACGCAGGAUGCACCAAUGCCCGAGCCAAAGACAGUGAUCCGGCGGGGGUCUCCCCCGAAGAAGGCAAUAUUCUCGCUCACCCAGCGGAGGGCCUGGAUCAACAGAGGAUUGAGCAUCA
B18: chr11:87793471:87793472:-_ENSMUSG00000020483_ENSMUST00000020775|mus_mus|mus_mus_mus_hu_False|38_58 (ssRNA)
RNA: GGGAGUUCUACAGUCCGACGAUCUGGACUUGAAAAUAAAAGAAUAAGCUGGAUCCCCCACCCCCCCACAUUGUCAACCCUAUGCGAGAGUUUUGAAUGAUUCAUAAGAAAAUCAGCAGCUCAAACGGCAAUGACCACCCCACCCAACAGAGGAUUGAGCAUCA
B19: chr1:163117127:163117128:-_ENSG00000143248_ENST00000313961|hu_mus|hu_hu_hu_mus_False|48_108 (ssRNA)
RNA: GGGAGUUCUACAGUCCGACGAUCUGCGGGUUAUUAUGUAACUCAACUCACAGGGCAACUUUUGGAAGCCUGACCAGAUGACUACUUGAUUAACUCCUUAUAAAAUUCAGAGCGCACAAAGCGGGGCAGAGAAUCCUUCUCCAUCAACAGAGGAUUGAGCAUCA
B20: chr14:63848828:63848829:-_ENSG00000154001_ENST00000337537|hu_mus|FALSE|FALSE (ssRNA)
RNA: GGGAGUUCUACAGUCCGACGAUCACGCUGACGAUCUGACUUGUAUGUGGCUGUCAGCUCAUCAAACAUAGUGCUGUUCAUUUCCAUAAAUGCCUUCAACACGUUGUACACCAAUGCCACAAUGGCCGGAUUCCAAUGCUCUUUCAACAGAGGAUUGAGCAUCA
B21: chr2:5814250:5814251:-_ENSMUSG00000025816_ENSMUST00000102981|mus_hu|mus_mus_mus_hu_True|68_78 (ssRNA)
RNA: GGGAGUUCUACAGUCCGACGAUCUUCCUUUCCGGUUUCUGAAUUUCUGGUAGAACUGCACAGAAAGGUUUAAUAACUUCUAAAAAUUUGAUGCCCAUGGCUGCUGCUGGGGAGGCCCAGGGGGAAACCGCGGCCUCGGCGCUGCAACAGAGGAUUGAGCAUCA
B22: chrX:147030916:147030917:+_ENSG00000102081_ENST00000218200|hu_hu|FALSE|FALSE (ssRNA)
RNA: GGGAGUUCUACAGUCCGACGAUCUAUAAUAUUCCUACCUGCCAAGAUAUAAAAAAGGCACAGAUCAUACAACUUUUUUUGCUAAUGAAAAUGACAAAUGUCACAUCACACACAUUUCAGGGUCCACUAAAAUACUGGAAAAGUCAACAGAGGAUUGAGCAUCA

Target: T1, UNK ZnF1-3
Test: nsRBNS (natural sequence RNA bind-n-seq); RBNS binding buffer (assumed for nsRBNS): 25 mM Tris pH 7.5, 150 mM KCl, 3 mM MgCl2, 0.01% Triton X-100, 500 ug/ml BSA, 20 U/ml SUPERase-In, 4 C; UNK is unkempt and MSI1 is Musashi-1; names of the RNAs are library labels; protein concentration not given here; high values mean tight binding

Question: Which binding signal does the source give for B1 here?
Answer: Its binding signal is 1.58 enrichment R.

Question: For B2, which binding signal is on record?
Answer: Its binding signal is 0.484 enrichment R.

Question: For B3, which binding signal is on record?
Answer: Its binding signal is 0.982 enrichment R.

Question: B4 was tested. Which binding signal did it give?
Answer: The binding signal was 0.982 enrichment R.

Question: Which binding signal does the source give for B5 here?
Answer: The binding signal was 1.05 enrichment R.

Question: Which binding signal does the source give for B6 here?
Answer: Its binding signal is 1.09 enrichment R.

Question: How did the binding signal turn out when B7 was run?
Answer: Its binding signal is 0.206 enrichment R.

Question: For B8, which binding signal is on record?
Answer: The binding signal was 0.619 enrichment R.

Question: B9 was tested. Which binding signal did it give?
Answer: The binding signal was 2.09 enrichment R.

Question: Which binding signal does the source give for B10 here?
Answer: The binding signal was 0.827 enrichment R.

Question: Which binding signal does the source give for B11 here?
Answer: Its binding signal is 0.921 enrichment R.

Question: For B12, which binding signal is on record?
Answer: Its binding signal is 0.777 enrichment R.

Question: How did the binding signal turn out when B13 was run?
Answer: Its binding signal is 0.809 enrichment R.

Question: B14 was tested. Which binding signal did it give?
Answer: The binding signal was 1.36 enrichment R.

Question: How did the binding signal turn out when B15 was run?
Answer: The binding signal was 0.492 enrichment R.

Question: B16 was tested. Which binding signal did it give?
Answer: The binding signal was 1.24 enrichment R.

Question: For B17, which binding signal is on record?
Answer: The binding signal was 1.29 enrichment R.

Question: How did the binding signal turn out when B18 was run?
Answer: The binding signal was 2.07 enrichment R.

Question: How did the binding signal turn out when B19 was run?
Answer: The binding signal was 1.18 enrichment R.

Question: B20 was tested. Which binding signal did it give?
Answer: Its binding signal is 0.644 enrichment R.

Question: B21 was tested. Which binding signal did it give?
Answer: Its binding signal is 1.9 enrichment R.

Question: How did the binding signal turn out when B22 was run?
Answer: Its binding signal is 1.44 enrichment R.
